# Experimental data published in PubChem BioAssay (NCI).
# The source holds several records for some structures; these can differ, active in one and inactive in another.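 Each cell line was grown in a 96-well plate and treated with one concentration of compound for 48 hours. Values below 10 were considered active.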 For part of its entries the source gives two or more results. Only these are listed. There may be further records. This drug was run again and again over the years, at its own concentration, as given; one value stands for one run. Additions like (4×) give the number of equal values in this list.
# Key:
# EKVX NSCLC = experiment: NCI-60 one-dose screen, 48 h (100 = growth as untreated, 0 = no growth, -100 = all killed); conditions: 25 µM
# SK-OV-3 ovarian = experiment: as above; conditions: 0.25 µM
smiles,measurement,setting,value
COc1cccc2c1C(=O)c1c(O)c3c(c(O)c1C2=O)C[C@@](O)(C(=O)CO)C[C@@H]3OC1CC(N)C(O)C(C)O1 (stereo not given in full),growth,EKVX NSCLC; runs of 1994,"inactive: 106%, 22% and active: -74.9, -33.2, -2.53, 9.45, -28.6, 8.93, 5.69, -71.8, -23.6, -23.3, -54.4, -32.5, -22.8, -43.7, -38.3, -55.5, -56.1, -45.5, -45.4, -23.5, -52.2, -51.5, -7.69, -44.5, -23.1, -29.8, -14.6, -35%"
same,growth,EKVX NSCLC; runs of 1995,"active: -36.4, -53.1, -34.5, -42.9, -46.2, -44.6, -0.783, -6.92, -47.6, -10.1, -30.1, -30.5, -45.9, -49.4, -44.9, -54.3, -10.3, -67.9, -59.1, -18, -12.4, -29.3, -14.6, -41.6, 8.54, -13.6, -19.9, -8.33, -27.4, -47.4, -22.3 (2×), -46.3, -7.18, -8.96, -67.6, -21.6, -40.7%"
same,growth,EKVX NSCLC; runs of 1996,"active: -52, -32.3, -38.5, -23.6, -5.77, -47.2, -16.3, -15.2, -18.1, -36.9, 7.38, 8.39, -15.8, -7.42, -11.9, -12.8, -39.9, -40.1, -28.3, -6.52, -26.7, -37.7, -33.8, -52.2, -34.1, -37.8, -61.7, -44.5, -21.8, -55.7, -38.7, -49.8, -53.7, -26.1, -35.5, -54.9, -51.3, -59.6, -56.6, -39.4, 5.8, -27.5, -24.4, -29.7, -15.9, -48, -34, -34.4 (2×), -38.2, -32.1, -26.6, -61.5, -17.8, -33.5% and inactive: 39.1%, 13%"
same,growth,EKVX NSCLC; runs of 1997,"active: -50.4, -22, -12, -52.7, -60.4, -45.5, -57, -64.9, 9.91, -34.9, -64.6, -21.5, -65.8, -43.2, -10.1, -53.5, -63.1, -21.3, -24.1, -41.2, -28.3, -26.9, -22.3, -29.5, -39.9, -41.7, -12.1, -61.6, -23.9, -9.41, -19.7, -25.3, 3.43, -23.2, -41.6 (2×), -19.2, -6.33, -38, -31.2% and inactive: 21.7, 12.9, 10.5, 26.4%"
same,growth,EKVX NSCLC; runs of 1998,"active: -0.842, -31.3, -36.6, -6.25, -25.4, -41, -25.7, -32.7, -36.9, -27.6, -41.2, -14.6, -54.8, -1.84, -20.4, -60.7, -59.6, -33.3, -52.2, -43.5, -12.8, -28.6, -73.2, -48.1% and inactive: 31.9%"
same,growth,EKVX NSCLC; runs of 1999,"active: -37.8, -32.8, -52.2, -20.6, -51.7, -86.7, -98.6, -50, -95, -72.2, -17.7, -89.7% and inactive: 20.4%"
same,growth,EKVX NSCLC; runs of 2000,"active: -54.3%, -100%, -70.5%"
same,growth,SK-OV-3 ovarian; runs of 2006,"inactive: 46%, 41.9%"
same,growth,SK-OV-3 ovarian; runs of 2007,"inactive: 39.9, 54.1, 50.3, 51.5, 46.5, 53, 37.4, 61.5, 54.3, 71.1, 65.4, 62.2, 68.3, 60.5, 70.8, 42.8, 24.8, 46.4, 56.2, 47.5, 62.4, 60.7, 32.5, 40.8, 52.7, 48.3, 66.5, 36.4, 54.9, 48.4, 39, 38.8, 29.5, 37.3, 46.1, 45.1, 26.8, 15.4, 17.1, 30, 34.4, 38.4%"
same,growth,SK-OV-3 ovarian; runs of 2008,"inactive: 51.3, 39.9, 32.1, 39.5, 49.1, 67.1, 64.1, 50.6, 54.5, 52.6, 48.2, 45.3, 31.1, 46.7, 47.7, 21.8, 23.5, 44, 34.2 (2×), 27.5, 42.8, 35.3, 49.3, 48.8, 47.6, 96.5, 43.7, 36.1, 32.2, 32.6, 21.3, 11.4, 33.7 (2×), 17.3, 26.8, 16.9, 28, 37.6, 36, 28.4, 36.9, 35.9, 51.8, 49.9, 36.7, 29.3, 12.3, 48.5, 32.5, 27.4% and active: 6.24%"
same,growth,SK-OV-3 ovarian; runs of 2009,"inactive: 31.2 (2×), 34, 21.8, 27.4, 32.4, 39.8, 60, 40.9, 31.6, 28, 58.5, 60.7, 32.3, 40.3, 39.5, 25.9, 16.7, 36.1 (2×), 39.3, 35.6, 24.6, 28.4, 29.1, 30.9 (2×), 32.7, 43.8, 28.9, 60.1, 46.1, 30.6, 24.9, 34.7, 44.9, 24.1, 34.4, 23.8, 15.5, 10.4, 12.6, 24, 18.6, 24.2, 21, 27.8, 24.8 (2×), 18.1, 17.8, 26.1, 37.7, 34.1, 15.8, 42.8, 14.6, 34.2, 32.1 (2×), 48.3, 44, 57, 42.6, 36.4, 29.4, 37.6% and active: 4.94%, 6.74%, 7.92%"
same,growth,SK-OV-3 ovarian; runs of 2010,"inactive: 40.8, 41.8, 42, 35.1, 39.1, 35.9, 46.7 (2×), 32.9, 45.5, 55.8 (2×), 45.1, 38.9, 42.1, 39.5, 50.6, 45.7, 38.6, 42.5 (2×), 44.5, 19.4, 35.6, 22.4, 39.8 (2×), 44.6, 45.6, 47.8, 44.9, 45.8, 54.1, 54.3, 26.5, 51.9, 51.3, 47.6, 52.2, 46.9, 43.7, 36.5, 35.8, 33.6, 48.5, 54.4, 50.7, 52.6, 42.4, 49.5, 56.2, 48.3, 52.5, 53.5, 50.9, 51.7%"
same,growth,SK-OV-3 ovarian; runs of 2011,"inactive: 48, 49.1, 45.5 (2×), 51.4, 48.6, 39.6, 42.8, 56.6, 48.9, 38.7, 55.3, 68, 57.4, 59.4, 53.1, 59.6, 64, 60.6, 58.7, 54.4, 51.9, 64.5, 47.7, 51.8, 31.5, 42.6 (2×), 28.2, 41.6, 33.2, 37.5, 47.4, 45.7, 36.9, 44.9, 42.3, 37.6, 30.2, 35.9, 52.7, 54.2, 48.7, 52.4, 48.8, 54, 36.8, 39.4, 47.8, 50.3, 49.7%"
same,growth,SK-OV-3 ovarian; runs of 2012,"inactive: 51.8, 40.7, 54.2 (2×), 53.2, 54.3, 48.4, 49.1 (2×), 59.8, 62.7, 53.9, 53.8, 49.7, 46.4, 46.5, 50.8, 39.4, 47.8, 47.4 (2×), 30.6, 54.9, 60.3, 45.6, 50, 56.6, 55.1, 52.5, 56.5, 57.6, 63.3, 56.3, 64.7, 59.5 (2×), 58.1, 55.7, 48.6, 59.3, 60.6, 58.4, 68.9, 56.9, 52.1, 68.1, 42.8, 43.6, 58.7, 62.9, 62.4, 70.1, 72.2, 76.4, 79.9, 84.2, 78.5, 67.5, 86.6, 81.7, 81.3, 97.8, 65.8, 68.8, 67.4, 68.3, 52.2, 47.6, 32.6, 20.2, 36.5, 37.8, 54.7%"
same,growth,SK-OV-3 ovarian; runs of 2013,"inactive: 55.1, 57.2, 47.2, 49.4, 53.5, 47.5, 68, 66.4, 61.3 (2×), 62.1, 51.4, 56.8 (2×), 63.9, 74, 71.8, 76.8 (2×), 73.6, 72.5, 63.3, 63.2, 56.1, 65.3, 70.7, 58.5 (2×), 74.3, 69.2, 75.6, 85.5, 74.8, 73.1, 66.6, 68.6, 81, 80.5, 80, 76.3, 77.6, 67.8, 81.3, 76.5, 83.2, 90.2, 84, 79.2, 76.6, 80.4, 90.4, 68.8, 81.5, 74.5, 59.1, 67.1, 58.6, 77.9, 64.7, 65.5, 66.8, 54.4 (2×), 54.7, 60.4, 53.7, 50, 54.1, 52.5, 64.4, 72.4, 80.2, 39.2, 60.6, 36.2, 40.2, 34%"
